In the supplement of paper PMC9334596:
Values joined by “and” are separate entries in the source; they are usually repeats but may differ in a detail not shown here. Equal entries are not always repeated. Whole data set: some 5,300 compounds, median “PER2::LUC luminescence relative to vehicle control” near 0.96, cut for the highest 2% near 1.3. The list shows a part of the results.

Tested on: mPer2Luc MEF
Test: PER2::LUC luminescence relative to vehicle control (fold of vehicle); higher = higher PER2::LUC reporter signal
Conditions: 10 µM
In short: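 The reported values are PER2::LUC luminescence as fold of vehicle control in mouse embryonic fibroblasts carrying the mPer2Luc reporter. Cells were seeded at ~3000 per well in 384-well plates in DMEM with 10% FBS at 37 °C and 5% CO2, and compounds were added at 10 μM 48 h later. ONE-Glo luminescence was read 24 h and 30 h after treatment.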

| Structure (SMILES) | PER2::LUC luminescence (time after treatment 24 h) | PER2::LUC luminescence (time after treatment 30 h) |
| --- | --- | --- |
| O=C(O)c1ccc(N2C(=O)/C(=C\c3ccc(-c4ccc([N+](=O)[O-])cc4)o3)C=C2c2ccccc2)cc1 | 0.882 | 0.902 |
| CC(C)=CC1C(CO)C1(C)C (configuration not stated) | 1.15 | 1.12 |
| C[C@H](NC[C@H](O)CP(=O)(O)CC1CCCCC1)c1ccc(Cl)c(Cl)c1 | 1 | 0.968 |
| Nc1nc2c(ncn2COCCO)c(=O)[nH]1 | 1.18 and 0.969 | 0.843 and 0.929 |
| CC1(C)C(=O)[C@H]2C[C@]3(O)C4=CC(=O)O[C@@H](c5ccoc5)[C@@]4(C)CCC3[C@](C)(C2=O)[C@H]1CC(=O)O (some centres not stated) | 1.01 | 0.911 |
| NCCSSCCN | 0.939 | 0.882 |
| Cc1cc(NC2CCCCC2)nc(-n2nc(C)cc2C)n1 | 0.916 | 0.814 |
| CC(C)(C)NC(=O)[C@@H]1C[C@@H]2CCCC[C@@H]2CN1C[C@@H](O)[C@H](Cc1ccccc1)NC(=O)[C@H](CC(N)=O)NC(=O)c1ccc2ccccc2n1 | 0.894 and 0.795 | 0.994 and 0.933 |
| COc1ccc2[nH]c([S@@+]([O-])Cc3ncc(C)c(OC)c3C)nc2c1 | 1.02 and 1.01 and 1.11 | 1.01 and 0.923 and 1.08 |
| Cc1cc(N2CCOCC2)cc2[nH]c(-c3c(NC[C@@H](O)c4cccc(Cl)c4)cc[nH]c3=O)nc12 | 0.165 | 0.173 |
| CC(C)NCC(O)c1ccc(O)c(O)c1 (configuration not stated) | 1.14 and 0.997 and 1.11 | 0.981 and 0.873 and 1.07 |
| O=c1cc(-c2ccccc2O)oc2cc(O)ccc12 | 1.27 | 1.38 |
| CCCCCN(CCCCC)C(=O)C(CCC(=O)O)NC(=O)c1ccc(Cl)c(Cl)c1 (configuration not stated) | 0.931 | 0.981 |
| COc1c(N2C[C@@H]3CCCN[C@@H]3C2)c(F)cc2c(=O)c(C(=O)O)cn(C3CC3)c12 | 1.05 | 1.26 |
| COc1ccc(C(=O)c2ccccc2)c(O)c1 | 1.22 | 1.21 |
| CC(C)(C)c1ccc(C(=O)NC(=S)Nc2ccc(N)cc2)cc1 | 0.44 | 0.541 |
| CC1(C)CCC[C@]2(C)[C@H]3CC(=O)O[C@]3(C)CC[C@@H]12 | 0.623 | 1.15 |
| CC(=O)OCC(=O)[C@@]1(O)[C@H](C)C[C@H]2[C@@H]3CCC4=CC(=O)C=C[C@]4(C)[C@@]3(F)[C@@H](O)C[C@@]21C | 0.707 | 1.01 |
| CC1(C)C(=O)C=CC2(C)C1C=CC1(C)C2CCC2(C)C(c3ccoc3)OC(=O)C3OC312 (configuration not stated) | 0.103 | 0.0382 |
| COc1ncnc(NS(=O)(=O)c2ccc(N)cc2)c1OC | 0.986 | 0.84 |
| C#CCCCCCCCCCCCC(O)CC(O)COC(C)=O (configuration not stated) | 0.961 | 0.963 |

| Structure (SMILES) | PER2::LUC luminescence (time after treatment 24 h) | PER2::LUC luminescence (time after treatment 30 h) |
| --- | --- | --- |
| O=C(c1ccc2c(c1)OCO2)N1CCCCC1 | 1 | 0.843 |
| COc1ccc(C(=O)CC(=O)c2ccc(C(C)(C)C)cc2)cc1 | 0.849 | 1.15 |
| OC(c1cc(C(F)(F)F)nc2c(C(F)(F)F)cccc12)C1CCCCN1 (configuration not stated) | 0.783 and 0.621 | 0.864 and 0.642 |
| COc1ccc2c(c1)c(CC(=O)N1CCOCC1)c(C)n2C(=O)c1ccc(Cl)cc1 | 1.05 | 1.04 |
| NCC1CCN(c2nccc(-c3ccc4ccccc4c3)n2)CC1 | 0.584 and 0.557 | 0.666 and 0.629 |
| CO/N=C(\C(=O)N[C@@H]1C(=O)N2C(C(=O)[O-])=C(C[N+]3(C)CCCC3)CS[C@H]12)c1csc(N)n1 | 0.725 | 1.11 |
| Cc1coc2c1C(=O)C(=O)c1c-2ccc2c1CCCC2(C)C | 0.923 | 1.05 |
| Cc1cn2cc(C(=O)N(C)CCO)cc(N[C@@H]3CCOc4cccc(C)c43)c2n1 | 1.11 | 0.992 |
| COc1ccc(CCN2CCN(CCCc3ccccc3)CC2)cc1OC | 0.928 | 0.949 |
| CC[C@H]1OC(=O)C[C@@H](O)[C@H](C)[C@@H](O[C@@H]2O[C@H](C)[C@@H](O)[C@H](N(C)C)[C@H]2O)[C@@H](CCN2C[C@H](C)C[C@H](C)C2)C[C@@H](C)C(=O)/C=C/C(C)=C/[C@@H]1CO[C@@H]1O[C@H](C)[C@@H](O)[C@@H](OC)[C@H]1OC | 0.809 | 1.02 |
| O=C1Cc2c([nH]c3ccc(Br)cc23)-c2ccccc2N1 | 1.15 | 1.88 |
| CNCCCC12CCC(c3ccccc31)c1ccccc12 | 0.652 | 0.565 |
| CCc1c(O)cc(O)c(C(=O)c2ccc(OCCN3CCOCC3)c(OC)c2)c1CC(=O)N(CCOC)CCOC | 0.355 | 0.347 |
| Oc1cc2c(cc1O)CN(C(=S)NCCc1ccc(Cl)cc1)CCC2 | 0.859 | 1.13 |
| CCCCCC(=O)O[C@]1(C(C)=O)CC[C@H]2[C@@H]3CCC4=CC(=O)CC[C@]4(C)[C@H]3CC[C@@]21C | 0.914 | 1.06 |
| O=C(NCc1cccc(O)c1)c1cc2cc(F)ccc2[nH]1 | 0.948 | 0.986 |
| CCCCCCC(=O)OC1CC(C)(C)NC(C)(C)C1 | 1.24 | 1.15 |
| CC1(C)C[C@@H]1C(=O)N/C(=C\CCCCSC[C@H](N)C(=O)O)C(=O)O | 1 and 0.914 | 1.06 and 0.891 |
| Cc1cc(Cn2cnc3c2C[C@@H](C(=O)O)N(C(=O)C(c2ccccc2)c2ccccc2)C3)ccc1N | 0.59 | 0.914 |
| CN(C)Cc1cccc(N=C(c2ccccc2)c2c(O)[nH]c3cc(C(=O)N(C)C)ccc23)c1 | 0.742 and 0.494 | 0.727 and 0.408 |
| NC[C@@H](O)c1ccc(O)c(O)c1 | 1.26 | 1.04 |

| Structure (SMILES) | PER2::LUC luminescence (time after treatment 24 h) | PER2::LUC luminescence (time after treatment 30 h) |
| --- | --- | --- |
| Nc1nc(Cl)nc2c1ncn2[C@@H]1O[C@H](COP(=O)(O)OP(=O)(O)OP(=O)(O)O)[C@H](O)C1O (some centres not stated) | 1.1 | 1.08 |
| O=C(O[C@@H]1Cc2c(O)cc(O)cc2O[C@@H]1c1ccc(O)c(O)c1)c1cc(O)c(O)c(O)c1 | 1.02 | 0.897 |
| C[C@@H](O)[C@H]1C(=O)N2C(C(=O)O)=C(S[C@@H]3CN[C@H](C(=O)N(C)C)C3)[C@H](C)[C@H]12 | 1.05 | 1.07 |
| CC(=O)NCC(=O)N[C@H](CCC(=O)O)C(=O)O | 1.03 | 1.02 |
| CCCCCCCC/C=C\CCCCCCCC(=O)NCCO | 1.02 and 1.05 | 1.05 and 1.02 |
| O=C(O)CCNc1cc(N2CCc3ccccc3CC2)nc(-c2cccnc2)n1 | 0.987 | 1.04 |
| CC(=O)O[C@H]1C[C@@H]2CC[C@@H]3[C@H](CC[C@@]4(C)[C@H]3C[C@H]([N+]3(C)CCCCC3)[C@@H]4OC(C)=O)[C@@]2(C)C[C@@H]1N1CCCCC1 | 0.918 | 1.12 |
| O[C@H]1CC[C@H](Nc2ncc3nc(Nc4c(F)cc(F)cc4F)n([C@H]4CCOC4)c3n2)CC1 | 0.731 | 0.67 |
| Cc1cc(C)cc(OCC2CNC(=O)O2)c1 (configuration not stated) | 0.76 | 0.963 |
| COc1ccc(C(=O)O)c(O)c1OC | 0.945 | 0.923 |
| COc1ccc(NC(=O)c2ccc(C(=N)N(C)C)cc2)c(C(=O)Nc2ccc(Cl)cn2)c1 | 0.825 | 0.803 |
| CC1(C)O[C@@H]2C[C@H]3[C@@H]4CCC5=CC(=O)CC[C@]5(C)[C@@]4(F)[C@@H](O)C[C@]3(C)[C@]2(C(=O)CCl)O1 | 0.594 | 1.28 |
| C[C@]12C=CC(=O)C=C1CC[C@H]1[C@@H]3C[C@@H](O)[C@](O)(C(=O)CO)[C@@]3(C)C[C@H](O)[C@@]12F | 0.712 | 1.29 |
| O=C(O)COc1ccccc1C(Nc1ccccn1)c1cc(Cl)c2cccnc2c1O (configuration not stated) | 1.02 | 0.962 |
| C[C@@H]1O[C@@H](OC[C@H]2O[C@@H](Oc3c(-c4ccc(OCCO)c(OCCO)c4)oc4cc(OCCO)cc(O)c4c3=O)[C@H](O)[C@@H](O)[C@@H]2O)[C@H](O)[C@H](O)[C@H]1O | 1.15 | 0.866 |
| CCN(CC)C(=O)/C(C#N)=C/c1cc(O)c(O)c([N+](=O)[O-])c1 | 1.02 | 0.969 |
| C=C1CCN([C@H](C)[C@](O)(Cn2cncn2)c2ccc(F)cc2F)CC1 | 1.03 | 0.879 |
| NC(N)=NCCC[C@H](NC(=O)[C@@H](N)Cc1ccc(O)cc1)C(=O)O | 1.04 | 0.909 |
| CN(C/C=C/c1ccccc1)Cc1cccc2ccccc12 | 0.5 | 0.535 |
| CC(=O)CCCCn1c(=O)c2c(ncn2C)n(C)c1=O | 1.26 | 1.23 |
| CCCC(=O)NCCc1c(I)[nH]c2ccc(OC)cc12 | 0.668 | 0.814 |

| Structure (SMILES) | PER2::LUC luminescence (time after treatment 24 h) | PER2::LUC luminescence (time after treatment 30 h) |
| --- | --- | --- |
| CN1C(=O)OC(C)(C)C1=O | 1.07 | 0.86 |
| COc1cccc(Nc2c(C(N)=O)cnc3c(C)cc(S(=O)(=O)c4cccc(C(=O)N(C)C)c4)cc23)c1 | 1.01 | 1.01 |
| O=C(O)C=C1CCCc2ccccc2C1O (configuration not stated) | 1.01 | 0.91 |
| OCCN1CCN(CCCN2c3ccccc3C=Cc3ccccc32)CC1 | 0.724 | 0.798 |
| Nc1c(CC(=O)O)cccc1C(=O)c1ccc(Br)cc1 | 1.09 | 1.02 |
| N[C@@H](Cc1cc(CP(=O)(O)O)cc(-c2ccccc2Cl)c1)C(=O)O | 0.98 | 0.874 |
| OCC1OC(n2cnc3c(NC4CCCC4)nc(Cl)nc32)C(O)C1O (configuration not stated) | 0.932 | 0.97 |
| Clc1ccc(C(c2ccc(Cl)cc2)[n+]2ccn(CC(OCc3ccc(Cl)cc3Cl)c3ccc(Cl)cc3Cl)c2)cc1 (configuration not stated) | 0.444 | 0.474 |
| C[C@H]1O[C@@H](n2cc(F)c(=O)[nH]c2=O)[C@H](O)[C@@H]1O | 0.9 and 0.84 | 0.663 and 0.685 |
| CC(C)(C)c1nc(-c2cccc(NS(=O)(=O)c3c(F)cccc3F)c2F)c(-c2ccnc(N)n2)s1 | 0.717 and 0.611 and 0.581 | 0.667 and 0.589 and 0.579 |
| CC1(C)CC[C@]2(C(=O)O)CC[C@]3(C)C(=CC[C@@H]4[C@@]5(C)CC[C@H](O)C(C)(C)[C@@H]5CC[C@]43C)[C@@H]2C1 | 0.935 | 0.889 |
| O=C(O)CCCCC(CCSCc1ccccc1)SCc1ccccc1 (configuration not stated) | 1.33 | 1.19 |
| CC(C)NC[C@H](O)COc1cccc2ccccc12 | 0.867 and 0.765 | 0.949 and 0.753 |
| O=c1c(-c2ccc(O)cc2)coc2cc(O)ccc12 | 0.822 | 0.788 |
| CS(=O)(=O)c1ccc(-c2cnc(N)c(C(=O)Nc3ccccc3)n2)cc1 | 0.446 | 0.49 |
| CCCCCNC(=N)N/N=C/c1c[nH]c2ccc(OC)cc12 | 0.221 | 0.263 |
| COc1ccc(S(=O)(=O)Nc2ccccc2CN(C)C/C=C/c2ccc(Cl)cc2)cc1 | 1.02 and 0.909 | 0.939 and 0.913 |
| CC(C)(O)c1ccc2c(c1)ncn2-c1cccc(-c2ccccc2C#N)c1 | 0.829 | 0.89 |
